The supplement of paper PMC7826260
This is one part of the list. Cleavage of a single-stranded DNA pool by Rep nickase domains was read by sequencing (3 µM enzyme, 1 h, 37 °C); shown is the middle of each 90-letter strand. Uncut reads are compared with the no-enzyme pool on a log2 scale; strong cutting gives strongly negative numbers. There is no active / inactive call. Because reads are shares of a total, they shift together, so uncut sequences can rise above 0 when many others are cut.

Columns and labels:
Assay in all cases: uncleaved DNA left, log2 of reads against the no-enzyme library (log2 ratio); higher = less cleavage (more negative = more Rep cleavage of the k-mer); sequences stand for … in CTCGTCCG…ACCGGAGA
[1] = system: T1, Rep nickase domain of Muscovy duck circovirus
T1 sequence (Rep 1-111, printed without the tag): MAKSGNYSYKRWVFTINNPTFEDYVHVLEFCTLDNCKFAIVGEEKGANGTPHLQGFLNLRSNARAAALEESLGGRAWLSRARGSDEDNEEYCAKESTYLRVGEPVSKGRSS
Protocol: (§1)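 A pool of 90-nt single-stranded DNAs with seven random bases just before the constant AC of the nick site (name = the seven bases) was cut by 3 µM recombinant His6-SUMO-tagged Rep nickase domain (300 nM DNA, 50 mM HEPES pH 8.0, 50 mM NaCl, 1 mM MnCl2, 1 h, 37 °C, three replicates). Uncut DNA was amplified and sequenced.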

[2] = system: T2, Rep nickase domain of banana bunchy top virus
T2 sequence (Rep 1-94, printed without the tag): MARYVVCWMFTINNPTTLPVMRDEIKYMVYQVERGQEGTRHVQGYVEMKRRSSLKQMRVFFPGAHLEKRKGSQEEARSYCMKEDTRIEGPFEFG
Protocol: as §1

[3] = system: T3, Rep nickase domain of cabbage leaf curl virus
T3 sequence (Rep 1-116, printed without the tag): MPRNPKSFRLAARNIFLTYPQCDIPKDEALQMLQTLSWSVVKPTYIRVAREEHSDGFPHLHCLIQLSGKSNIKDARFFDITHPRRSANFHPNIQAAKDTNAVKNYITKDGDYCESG
Protocol: as §1

[4] = system: T4, Rep nickase domain of chickpea chlorotic dwarf virus
T4 sequence (Rep 1-124, printed without the tag): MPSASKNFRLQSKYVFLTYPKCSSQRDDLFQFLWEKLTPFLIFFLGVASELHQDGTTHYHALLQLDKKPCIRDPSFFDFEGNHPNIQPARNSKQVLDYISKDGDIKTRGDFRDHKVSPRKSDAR
Protocol: as §1

[5] = system: T5, Rep nickase domain of faba bean necrotic yellows virus
T5 sequence (Rep 1-98, printed without the tag): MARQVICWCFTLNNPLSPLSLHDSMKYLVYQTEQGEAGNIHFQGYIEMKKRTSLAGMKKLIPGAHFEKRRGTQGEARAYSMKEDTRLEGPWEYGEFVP
Protocol: as §1

[6] = system: T6, Rep nickase domain of maize striate mosaic virus
T6 sequence (Rep 1-117, printed without the tag): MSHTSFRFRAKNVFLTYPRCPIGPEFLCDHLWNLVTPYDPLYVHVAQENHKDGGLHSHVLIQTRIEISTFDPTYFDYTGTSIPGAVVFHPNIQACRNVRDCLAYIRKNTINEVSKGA
Protocol: as §1

[7] = system: T7, Rep nickase domain of porcine circovirus 2
T7 sequence (Rep 2-116, printed without the tag): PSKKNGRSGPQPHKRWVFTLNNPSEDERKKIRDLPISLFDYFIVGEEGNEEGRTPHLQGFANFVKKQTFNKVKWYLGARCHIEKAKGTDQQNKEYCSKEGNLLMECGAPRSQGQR
Protocol: as §1

[8] = system: T8, Rep nickase domain of tomato yellow leaf curl virus
T8 sequence (Rep 1-136, printed without the tag): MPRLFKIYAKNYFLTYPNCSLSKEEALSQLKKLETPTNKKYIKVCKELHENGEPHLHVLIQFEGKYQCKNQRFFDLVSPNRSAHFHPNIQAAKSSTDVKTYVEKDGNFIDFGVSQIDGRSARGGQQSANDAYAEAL
Protocol: as §1

[9] = system: T9, Rep nickase domain of wheat dwarf virus
T9 sequence (Rep 1-137, printed without the tag): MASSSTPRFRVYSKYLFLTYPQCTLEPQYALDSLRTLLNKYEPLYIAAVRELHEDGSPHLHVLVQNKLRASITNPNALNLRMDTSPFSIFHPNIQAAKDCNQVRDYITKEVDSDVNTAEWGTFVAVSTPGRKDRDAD
Protocol: as §1

| Sequence | uncleaved DNA left (log2) [1] | uncleaved DNA left (log2) [2] | uncleaved DNA left (log2) [3] | uncleaved DNA left (log2) [4] | uncleaved DNA left (log2) [5] | uncleaved DNA left (log2) [6] | uncleaved DNA left (log2) [7] | uncleaved DNA left (log2) [8] | uncleaved DNA left (log2) [9] |
| --- | --- | --- | --- | --- | --- | --- | --- | --- | --- |
| CTGAATA | 0.0679 | 0.118 | -0.17 | -0.953 | 0.194 | -0.408 | 0.121 | 0.133 | 0.0602 |
| AAAGAGA | 0.0731 | 0.0396 | 0.316 | 0.444 | 0.112 | -0.235 | 0.136 | -0.0978 | 0.107 |
| AATATGA | 0.0964 | 0.119 | 0.133 | 0.0255 | 0.0445 | -0.755 | 0.0484 | 0.0847 | 0.0932 |
| CACACTT | -0.0712 | -1.97 | -1.32 | -2.89 | -0.023 | -1.04 | -2.94 | -0.0878 | -0.281 |
| TCCGGTC | -0.0629 | -0.136 | 0.201 | 0.362 | 0.0033 | 0.611 | -0.0557 | -0.0643 | -0.12 |
| AGCTCTT | -0.591 | -0.0495 | -0.0264 | -0.701 | -0.00265 | 0.897 | -2.98 | 0.0539 | -0.0896 |
| GCCCTCG | -0.0235 | -0.0288 | -0.732 | -0.331 | -0.149 | -0.677 | 0.039 | -0.102 | -0.174 |
| GATACCT | 0.0484 | 0.1 | 0.218 | 0.242 | 0.0865 | 0.642 | 0.0125 | 0.125 | 0.247 |
| CTGTCAG | -0.0094 | -0.131 | -0.81 | -0.568 | 0.0107 | -0.929 | -0.0233 | -0.0301 | -0.194 |
| CCGACAT | 0.0677 | 0.129 | 0.563 | 1.53 | -0.066 | 1.78 | 0.229 | 0.0424 | 0.161 |
| AAAAATG | 0.103 | 0.0971 | -0.389 | -0.728 | 0.0704 | -0.888 | 0.114 | 0.105 | 0.0767 |
| TTGTGAA | 0.0801 | 0.048 | -0.00509 | -0.0639 | 0.0281 | -0.403 | 0.0167 | 0.037 | -0.0521 |
| TCACACA | -0.16 | -0.073 | 0.0332 | -1.32 | -0.114 | -0.421 | -0.175 | 0.0211 | 0.00672 |
| AACCTCC | -0.153 | 0.0154 | 0.113 | -0.481 | 0.0183 | 0.533 | -0.0895 | 0.0348 | -0.0216 |
| TGGTACC | -0.189 | 0.0304 | -0.346 | -0.0775 | 0.00242 | 1.2 | -2.76 | 0.0364 | -0.497 |
| CAGCCGT | 0.0522 | -0.0902 | -0.53 | -0.906 | 0.00464 | -0.976 | -0.288 | -0.124 | -0.14 |

| Sequence | uncleaved DNA left (log2) [1] | uncleaved DNA left (log2) [2] | uncleaved DNA left (log2) [3] | uncleaved DNA left (log2) [4] | uncleaved DNA left (log2) [5] | uncleaved DNA left (log2) [6] | uncleaved DNA left (log2) [7] | uncleaved DNA left (log2) [8] | uncleaved DNA left (log2) [9] |
| --- | --- | --- | --- | --- | --- | --- | --- | --- | --- |
| TCTACCG | -0.0892 | -0.0725 | -0.946 | -1.78 | -0.0297 | -1.1 | 0.00934 | -0.0779 | -0.121 |
| CCTACTG | -0.177 | -0.156 | -0.172 | -0.172 | -0.0736 | 0.765 | -0.0185 | -0.229 | -0.0288 |
| CAAAAGG | 0.0552 | 0.0134 | 0.165 | 0.598 | 0.0405 | -0.232 | 0.108 | -0.112 | 0.0106 |
| GACTGAA | -0.0388 | 0.0324 | 0.117 | 0.695 | 0.0422 | 1.25 | -0.805 | 0.0258 | 0.112 |
| CGACGGT | 0.1 | -0.0918 | 0.0792 | 0.544 | -0.1 | 1.57 | -0.0235 | -0.0764 | 0.04 |
| AGTTGGA | 0.0149 | 0.0103 | -0.105 | -0.076 | -0.0337 | -0.68 | -0.192 | -0.0172 | -0.183 |
| GTAATAG | 0.0466 | -0.0637 | -0.398 | -0.325 | 0.0225 | -0.898 | 0.101 | -0.00363 | -0.0806 |
| CCTGCTC | 0.177 | 5.55e-05 | -0.0238 | -0.352 | -0.0332 | -0.739 | 0.121 | -0.0646 | 0.13 |
| GGGGAAT | 0.174 | 0.214 | 0.99 | 2.29 | 0.0892 | 2.47 | 0.409 | 0.208 | 0.282 |
| AGAATAT | 0.0255 | -0.0613 | 0.122 | -0.28 | 0.0486 | -0.0682 | -0.666 | 0.02 | 0.0967 |
| CGTCACT | -0.0759 | 0.068 | 0.0432 | -1.18 | -0.198 | -0.113 | -1.09 | -0.00426 | -0.0671 |
| TCCTCAA | 0.0595 | -0.0495 | -0.0217 | -0.234 | -0.118 | -0.249 | -0.0766 | 0.064 | -0.026 |
| ACCCAGC | -0.031 | -0.0221 | -0.485 | -0.508 | -0.142 | -0.971 | 0.196 | -0.0965 | -0.088 |
| GGTTCTC | -0.116 | -0.0638 | 0.218 | 0.906 | -0.262 | 1.54 | -0.109 | 0.0233 | -0.045 |
| CACTCTT | -2.98 | -3.17 | -1.26 | -2.8 | -0.491 | -0.884 | -3.96 | -0.0131 | -0.183 |
| CGGCATG | 0.0143 | -0.0985 | -0.0935 | 0.548 | -0.16 | 1.13 | 0.00215 | -0.19 | -0.094 |
